According to paper PMC9428466, “Computational prediction and experimental validation of Salmonella Typhimurium SopE-mediated fine-tuning of autophagy in intestinal epithelial cells” (Frontiers in Cellular and Infection Microbiology, 2022):

Target: T1, GFP-SopE (Salmonella Typhimurium, UniProt O52623 1-240)
T1 construct: SopE, SPI-1 secreted effector (GEF mimic) of Salmonella enterica serovar Typhimurium; also called Salmonella effector SopE; source: HEK293, transfected, in lysate
T1 sequence: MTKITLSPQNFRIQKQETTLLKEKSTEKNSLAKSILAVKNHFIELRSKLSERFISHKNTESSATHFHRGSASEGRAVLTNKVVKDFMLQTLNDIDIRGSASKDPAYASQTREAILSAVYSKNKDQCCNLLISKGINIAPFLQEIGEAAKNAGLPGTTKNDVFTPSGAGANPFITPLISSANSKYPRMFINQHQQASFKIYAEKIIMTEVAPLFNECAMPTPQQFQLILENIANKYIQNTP
Assay: co-IP; GFP-Trap magnetic beads on cleared lysates of co-transfected HEK293 cells, overnight at 4°C; lysis buffer 20 mM Tris pH 7.5, 0.5% Triton X-100, 150 mM NaCl, 2 mM EDTA, with benzonase; four washes; anti-Myc and anti-GFP blots, densitometry
Conditions: partners not purified

B1: BirA-Myc-SP1 (natural protein)
chain: not shown
notes: Transcription factor SP1, human; Construct is Addgene plasmid #167726; also called host SP1 transcription factor; source: HEK293, transfected, in lysate
  fold enrichment of SP1 in the co-IP against GFP alone: > 6 fold
